{
  "source": "PubChem BioAssay AID651820",
  "about": "(National Center for Advancing Translational Sciences (NCATS), 2012)",
  "note": "Values joined by “and” are separate entries in the source; they are usually repeats but may differ in a detail not shown here. Equal entries are not always repeated. Among all 340,000 compounds or so, about 12,000 (3.5%) were called active. Inconclusive means that the source gave no clear call. Such entries were picked first, then a sample of the others. Calls follow the shape of the dose curve; as a rule, active = well fitted inhibition curve with a large enough effect; inconclusive = small, poorly fitted or top-dose-only effect, or another doubt; inactive = no such curve, though single readings can be large or run the other way. Where the call is inconclusive, the potency comes from a doubtful curve fit. % is scaled to controls: 0 for no effect and ±100 for the full control effect; potency is read from the fitted curve at half-maximal effect; tags tell the direction and shape of the fitted curve.",
  "data": [
    {"experiment": "qHTS Assay for Inhibitors of Hepatitis C Virus (HCV)", "details": "Huh7.5.1 HCVcc-Cre (HCVcc is cell-culture hepatitis C virus) infection, luciferase reporter, 44 h; activity change, negative = inhibition: at 41.8 µM (top of the series) unless noted", "in_short": "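Seed cells (1,000/well) for 4 h; treat with compound and infect with HCVcc-Cre, moi about 0.5. Incubate 44 h, then detect luciferase activity.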", "values": [
      {"smiles": "CCCc1nc2oc3c(NCC(C)O)ncnc3c2c2c1CCCC2", "note": "(configuration not stated)", "Potency": "inconclusive: 3.16 µM [inhibitor, partial curve]"},
      {"smiles": "O=C1C2N=NN(CC(=O)N3N=C(c4cccc5ccccc45)CC3c3ccccc3)C2C(=O)N1c1ccccc1", "note": "(configuration not stated)", "Potency": "inconclusive: 14.1 µM [inhibitor, single point]"},
      {"smiles": "O=S1(=O)c2c(F)cccc2O[C@@H](COCc2ccccc2)CN1CCc1ccc(F)cc1", "Potency": "active: 10 µM"},
      {"smiles": "CCOc1ccc(NS(=O)(=O)c2ccc(C(=O)NC3CCN(Cc4ccccc4)CC3)cc2)cc1", "Potency": "inconclusive: 10 µM [inhibitor, partial curve]"},
      {"smiles": "CCCS(=O)(=O)Nc1cccc(-c2nc3cccnc3s2)c1", "Potency": "inconclusive: 8.91 µM [inhibitor, partial curve]"},
      {"smiles": "COc1ccccc1CCN=C(N)NS(=O)(=O)c1ccc(F)cc1", "Potency": "inconclusive: 10 µM [inhibitor, single point]"},
      {"smiles": "O=C(Nc1ccc([N+](=O)[O-])cc1)Nc1ccc2c(c1)OCCO2", "Potency": "inconclusive: 31.6 µM [inhibitor, single point]"},
      {"smiles": "Cc1nc(-c2ccccc2)nc2[nH]c(-c3ccccc3)cc(=O)c12", "Potency": "inconclusive: 11.2 µM [inhibitor, single point]"},
      {"smiles": "O=C(NNCc1ccccc1)c1ccccn1", "activity change, negative = inhibition": "inactive: 7.93%"},
      {"smiles": "C/C(=C\\c1ccccc1)C(=O)N1CCN(Cc2ccc3c(c2)OCO3)CC1", "activity change, negative = inhibition": "inactive: -29.2%"},
      {"smiles": "O=c1cc(N2CCCC2)c(-c2ccccc2)n[nH]1", "activity change, negative = inhibition": "inactive: -2.8%"},
      {"smiles": "CNc1ccccc1C(C)(C)c1cc(-c2cc(C)cc(C)c2)no1", "Potency": "inconclusive: 31.6 µM [inhibitor, single point]"},
      {"smiles": "Cc1cc(C)nc(SCC(=O)Nc2ccc(N3CCOCC3)cc2)n1", "Potency": "inconclusive: 12.6 µM [inhibitor, partial curve]"},
      {"smiles": "O=C(CN1CCC(NC(=O)Nc2ccccc2)CC1)Nc1ccc([N+](=O)[O-])cc1", "Potency": "inconclusive: 8.91 µM [inhibitor, partial curve]"},
      {"smiles": "Cc1cc(C(=O)N2CCN(C/C=C/c3ccccc3)CC2)cs1", "Potency": "inconclusive: 3.16 µM [inhibitor, single point]"},
      {"smiles": "CCN(CC)S(=O)(=O)c1ccc(Cl)c(C(=O)Nc2nncs2)c1", "activity change, negative = inhibition": "inactive: -7.82%"},
      {"smiles": "Cc1cc(C(=O)C(C(c2ccccc2)N2CCOCC2)N2CCOCC2)ccc1Cl", "note": "(configuration not stated)", "activity change, negative = inhibition": "inactive: 14.2%"},
      {"smiles": "COc1ccc(C(=O)CCC(=O)Nc2cc(Cl)c(O)c(Cl)c2)cc1", "activity change, negative = inhibition": "inactive: -5.51%"},
      {"smiles": "Cc1ccc2[nH]c(=O)c(-c3nc4cc(C)ccn4c3NCc3ccco3)cc2c1", "Potency": "inconclusive: 31.6 µM [inhibitor, single point]"},
      {"smiles": "Cc1c(C=O)c2ccccc2n1CC(=O)N1CCc2ccccc2C1", "Potency": "inconclusive: 3.98 µM [inhibitor, full curve, poor fit]"},
      {"smiles": "N#Cc1c(N)nc(SCc2ccncc2)c(C#N)c1-c1cccs1", "Potency": "active: 0.562 µM"},
      {"smiles": "CC(C)(C)C1CCC(=O)N(CCSc2ccccc2)CC1", "note": "(configuration not stated)", "Potency": "active: 3.55 µM"},
      {"smiles": "Cc1ccccc1COc1ccc(-c2nnn(CC(=O)O)n2)cc1", "activity change, negative = inhibition": "inactive: 19%"},
      {"smiles": "Cc1ccc(NC(=S)N2CCN(S(=O)(=O)c3ccccc3)CC2)cc1", "activity change, negative = inhibition": "inactive: 12.8%"},
      {"smiles": "Cc1ccc2oc(C(=O)NCCCN3CCOCC3)c(C)c2c1", "activity change, negative = inhibition": "inactive: 23.2%"},
      {"smiles": "O=S(=O)(Nc1ccc2c3c(cccc13)CC2)c1ccc(F)cc1", "activity change, negative = inhibition": "inactive: -6.76%"},
      {"smiles": "CCc1cc2cc(C)ccc2nc1SCC(=O)Nc1cc(C)on1", "Potency": "inconclusive: 8.91 µM [inhibitor, partial curve]"},
      {"smiles": "O=C(CN(Cc1ccco1)C(=O)c1ccc(Cl)cc1)Nc1ccc(Cl)c(Cl)c1", "Potency": "inconclusive: 2.82 µM [inhibitor, partial curve]"},
      {"smiles": "COC(=O)c1c(NC(=O)c2ccco2)sc(C)c1C", "Potency": "inconclusive: 6.31 µM [inhibitor, full curve]"},
      {"smiles": "CCC1Oc2ccc(C)cc2N(CC(=O)N2CCN(c3ccc(F)cc3)CC2)C1=O", "note": "(configuration not stated)", "Potency": "inconclusive: 12.6 µM [inhibitor, partial curve]"},
      {"smiles": "O=C(N/N=C/c1c(Cl)cccc1Cl)c1ccc(F)cc1", "Potency": "inconclusive: 25.1 µM [inhibitor, partial curve]"},
      {"smiles": "COC(=O)c1ccc(NC(=O)c2ccc3nccnc3c2)cc1", "Potency": "inconclusive: 10 µM [inhibitor, partial curve]"},
      {"smiles": "CN(C)c1nc(SCC#N)nc(N2CCOCC2)n1", "Potency": "inconclusive: 10 µM [inhibitor, partial curve]"},
      {"smiles": "COc1ccc(-c2cn[nH]c2-c2ccc(OC)cc2)cc1", "Potency": "inconclusive: 31.6 µM [inhibitor, single point]"},
      {"smiles": "COc1ccc(C(=O)CSc2nnc(-c3cccnc3)n2Cc2ccco2)cc1", "activity change, negative = inhibition": "inactive: -2.57%"},
      {"smiles": "Cc1oc(-c2ccc(Cl)cc2)nc1CS(=O)CC(=O)NCCN1CCCC1", "note": "(configuration not stated)", "activity change, negative = inhibition": "inactive: -24.2%"},
      {"smiles": "CSc1ccc(C(=O)C2CCCN(C(=O)c3cc4cc(F)ccc4[nH]3)C2)cc1", "note": "(configuration not stated)", "Potency": "inconclusive: 22.4 µM [inhibitor, single point]"},
      {"smiles": "Cc1c(NC(=O)/C(C#N)=C/c2ccc(-c3ccc(Cl)c(Cl)c3)o2)c(=O)n(-c2ccccc2)n1C", "Potency": "inconclusive: 17.8 µM [inhibitor, partial curve]"},
      {"smiles": "O=[N+]([O-])c1ccccc1NCCNc1ncc(C(F)(F)F)cc1Cl", "Potency": "inconclusive: 31.6 µM [inhibitor, single point]"},
      {"smiles": "COC(=O)c1ccc(N2CCCCC2)c(NS(=O)(=O)c2ccc(C)cc2)c1", "Potency": "active: 12.6 µM"},
      {"smiles": "COc1ccc(C2c3c(-c4ccccc4O)n[nH]c3C(=O)N2CCc2ccc(OC)c(OC)c2)cc1", "note": "(configuration not stated)", "Potency": "inconclusive: 14.1 µM [inhibitor, single point] and inconclusive: 31.6 µM [inhibitor, single point]"},
      {"smiles": "Cc1cccc(-n2c(SCC(=O)Nc3ncc(Cl)cc3Cl)nc3ccccc32)c1", "Potency": "active: 11.2 µM"},
      {"smiles": "Cc1ccc(-n2c(SCC(=O)N/N=C/C=C/c3ccccc3[N+](=O)[O-])nc3ccccc3c2=O)cc1", "Potency": "inconclusive: 3.16 µM [inhibitor, full curve]"},
      {"smiles": "O=S(=O)(c1ccc(F)c(F)c1F)N1CCN(c2ncnc3sccc23)CC1", "Potency": "inconclusive: 10 µM [inhibitor, partial curve]"},
      {"smiles": "Cc1cc(C(=O)COc2cccnc2[N+](=O)[O-])c(C)n1-c1ccccc1F", "activity change, negative = inhibition": "inactive: -26.8%"},
      {"smiles": "O=C(COc1cccc2cccnc12)N1CCc2ccccc2C1", "Potency": "inconclusive: 0.355 µM [inhibitor, full curve, poor fit]"},
      {"smiles": "O=C(NC(NC(=S)Nc1ccccc1)C(Cl)(Cl)Cl)c1cccc(Cl)c1", "note": "(configuration not stated)", "Potency": "active: 11.2 µM"},
      {"smiles": "Nc1nnc(SCC(=O)N2CCc3ccccc32)n1-c1ccccc1", "Potency": "inconclusive: 4.47 µM [inhibitor, full curve, poor fit]"},
      {"smiles": "Nc1nc(CN2CCC(Cc3ccccc3)CC2)nc(Nc2ccccc2)n1", "Potency": "inconclusive: 5.62 µM [inhibitor, single point]"},
      {"smiles": "CCCOc1ccc(C(O)(CCN2CCCCC2)c2ccccc2OC)cc1", "note": "(configuration not stated)", "Potency": "inconclusive: 11.2 µM [inhibitor, single point]"},
      {"smiles": "O=C(c1cccc(NC2=NC3CS(=O)(=O)CC3S2)c1)N1CCN(c2cccc(Cl)c2)CC1", "note": "(configuration not stated)", "activity change, negative = inhibition": "inactive: 13.6%"},
      {"smiles": "O=C(CCC(=O)N1CCN(c2ccc(F)cc2)CC1)c1ccc(F)cc1", "activity change, negative = inhibition": "inactive: 4.51%"},
      {"smiles": "O=C(OCc1nnc(-c2ccccc2)o1)c1ccccc1", "activity change, negative = inhibition": "inactive: 29.4%"},
      {"smiles": "O=C(COC(=O)Cn1cc(C(F)(F)F)ccc1=O)Nc1ccccc1", "activity change, negative = inhibition": "inactive: 20.5%"},
      {"smiles": "COc1ccc2nc(/N=C/c3cccc(OC)c3O)sc2c1", "activity change, negative = inhibition": "inactive: 0.372%"},
      {"smiles": "O=C(c1[nH]ncc1-c1ccccc1)C1CO1", "note": "(configuration not stated)", "activity change, negative = inhibition": "inactive: -2.35%"},
      {"smiles": "Cc1ccc2nsnc2c1S(=O)(=O)N(Cc1ccco1)Cc1cc2cccc(C)c2[nH]c1=O", "Potency": "inconclusive: 3.55 µM [inhibitor, single point]"},
      {"smiles": "CCOc1ccc(CC(=O)NCCS(=O)(=O)N2CCN(c3ccccc3)CC2)cc1", "activity change, negative = inhibition": "inactive: -0.883% [at 8.37 µM]"},
      {"smiles": "Cc1ccc(NC(=O)COc2ncnc3ccccc23)cc1S(=O)(=O)N1CCOCC1", "Potency": "inconclusive: 31.6 µM [inhibitor, single point]"},
      {"smiles": "CCN(Cc1nc2ccccc2c(=O)[nH]1)C(=O)c1cccc(OCc2c(C)noc2C)c1", "Potency": "inconclusive: 31.6 µM [inhibitor, single point]"},
      {"smiles": "CCC(C(=O)NC1CCCCCC1)c1ccccc1", "note": "(configuration not stated)", "Potency": "inconclusive: 31.6 µM [inhibitor, single point]"},
      {"smiles": "COc1ccc(NC(=O)CN(C)C(=O)c2sc3ccccc3c2Cl)cc1", "Potency": "inconclusive: 7.94 µM [inhibitor, partial curve, poor fit]"},
      {"smiles": "O=C(O)CCc1ccc(-c2ccc(Cl)cc2)n1CCC(=O)O", "activity change, negative = inhibition": "inactive: 26.9%"},
      {"smiles": "N#CCC(=O)N/N=C/c1c2ccccc2cc2ccccc12", "Potency": "inconclusive: 15.8 µM [inhibitor, single point]"},
      {"smiles": "Cc1ccc2[nH]c(C(=O)N/N=C/c3ccccc3C(=O)O)c(-c3ccccc3)c2c1", "activity change, negative = inhibition": "inactive: 3.49%"},
      {"smiles": "O=C(C[n+]1ccc(-c2cc(C(=O)Nc3cccc(C(F)(F)F)c3)c3ccccc3n2)cc1)c1cccc([N+](=O)[O-])c1", "Potency": "active: 12.6 µM"},
      {"smiles": "Cc1ccc(/C=C2\\SC(=S)N(Cc3ccccc3)C2=O)o1", "Potency": "inconclusive: 0.316 µM [inhibitor, full curve, poor fit]"},
      {"smiles": "O=C(Cn1cc([N+](=O)[O-])nc1[N+](=O)[O-])N1CCN(c2ccccc2)CC1", "activity change, negative = inhibition": "inactive: -19.7%"},
      {"smiles": "Cc1c(OCC(=O)Nc2cccnc2)ccc2c3c(c(=O)oc12)CCC3", "activity change, negative = inhibition": "inactive: -1.19%"},
      {"smiles": "O=c1ccc(-c2ccc(S(=O)(=O)Nc3ccccc3Cl)o2)n[nH]1", "activity change, negative = inhibition": "inactive: 12.6%"},
      {"smiles": "O=C(/C(=C/c1ccc(Cl)cc1)c1nc2ccccc2[nH]1)c1ccccc1", "Potency": "active: 10 µM"},
      {"smiles": "Cc1cc(C)cc(OCC(=O)Nc2ccc(S(=O)(=O)Nc3ccccn3)cc2)c1", "Potency": "inconclusive: 22.4 µM [inhibitor, partial curve, poor fit]"}
    ]}
  ]
}
